Laboratory results as given in a compilation of properties of binary mixtures (doi:10.1021/je060126x).
The densities may have been worked out from excess volumes.

Assay: xn = mol fraction of the nth substance listed
Conditions: 298.15 K, 101 kPa

Q: Which mass density (x2 = 0.1271) does the source give for `CCOS(=O)(=O)[O-].CC[n+]1ccn(C)c1` + CCO here?
A: 1220.7 kg/m3

Q: And the mass density (x2 = 0.1281)?
A: 1220.6 kg/m3

Q: What about the mass density (x2 = 0.3598) of the same molecule?
A: 1176.3 kg/m3

Q: What about the mass density (x2 = 0.4604) of the same molecule?
A: 1150.1 kg/m3

Q: What about the mass density (x2 = 0.5103) of the same molecule?
A: 1134.8 kg/m3

Q: What about the mass density (x2 = 0.5223) of the same molecule?
A: 1131 kg/m3

Q: And the mass density (x2 = 0.5724)?
A: 1113.2 kg/m3

Q: And the mass density (x2 = 0.5951)?
A: 1104.5 kg/m3

Q: And the mass density (x2 = 0.712)?
A: 1050.5 kg/m3

Q: What about the mass density (x2 = 0.7174) of the same molecule?
A: 1047.7 kg/m3

Q: And the mass density (x2 = 0.806)?
A: 992 kg/m3

Q: What about the mass density (x2 = 0.8666) of the same molecule?
A: 943.3 kg/m3

Q: What about the mass density (x2 = 0.9026) of the same molecule?
A: 908.9 kg/m3

Q: What about the mass density (x2 = 0.9062) of the same molecule?
A: 905 kg/m3

Q: And the mass density (x2 = 0.9504)?
A: 854.7 kg/m3

Q: What about the mass density (x2 = 0.9522) of the same molecule?
A: 852.3 kg/m3
